From the supplement of paper PMC9446081
Among all 39,000 compounds or so, about 220 (0.56%) showed activity. Some of the results follow.

system: Escherichia coli K-12 BW25113; assay: relative growth (OD600 normalised to plate interquartile mean) (fraction); higher = less growth inhibition, active = 0.2 or less; details: 50 µM; LB; incubation time: overnight (16-24 h)
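Further: static incubation at 37 °C against the wild-type strain, values averaged over two biological replicates.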

| SMILES | relative growth |
| --- | --- |
| C[C@@H]1CN([C@@H](C)CO)S(=O)(=O)c2ccc(C#Cc3ccc(F)cc3)cc2O[C@@H]1CN(C)C(=O)c1ccccn1 | inactive: 0.963 |
| C[C@@H]1CN([C@@H](C)CO)C(=O)Cc2cc(NC(=O)Cn3cnnn3)ccc2O[C@@H]1CN(C)Cc1ccc2c(c1)OCO2 | inactive: 0.997 |
| CN(C)S(=O)(=O)N1C[C@H]2C[C@H](C(=O)Nc3cccnc3)[C@@H](C1)O2 | inactive: 0.989 |
| C[C@@H]1CN([C@@H](C)CO)C(=O)c2cc(NC(=O)Nc3ccc(C(F)(F)F)cc3)ccc2O[C@H]1CN(C)Cc1ccc(Cl)c(Cl)c1 | inactive: 1.02 |
| C[C@H](CO)N1C[C@H](C)[C@H](CN(C)S(=O)(=O)c2cn(C)cn2)Oc2ncc(C#CC(C)(C)O)cc2C1=O | inactive: 1.01 |
| O=C(C[C@@H]1CC[C@@H]2[C@H](COC[C@@H](O)CN2C(=O)c2ccccc2)O1)NCCCN1CCOCC1 | inactive: 0.999 |
| C[C@@H]1CCCCO[C@@H](CN(C)C(=O)Cc2ccccc2)[C@H](C)CN([C@@H](C)CO)C(=O)c2cc(NS(=O)(=O)c3cccs3)ccc2O1 | inactive: 1.01 |
| C[C@@H]1CN([C@@H](C)CO)C(=O)CCCn2nncc2CO[C@H]1CN(C)C(=O)Nc1ccc2c(c1)OCO2 | inactive: 0.988 |
| NCc1nncn1-c1ccccc1 | inactive: 0.999 |
| C[C@H]1CCCCO[C@H](CN(C)CC2CC2)[C@@H](C)CN([C@@H](C)CO)C(=O)c2cc(NC(=O)Nc3ccc4c(c3)OCO4)ccc2O1 | inactive: 0.986 |
| NCc1cccc2c1OCCCO2 | inactive: 0.991 |
| C[C@@H]1CN([C@@H](C)CO)C(=O)c2cc(NS(=O)(=O)c3ccccc3)ccc2O[C@H]1CN(C)Cc1ccc(Oc2ccccc2)cc1 | inactive: 0.993 |
| C[C@@H]1CN([C@@H](C)CO)C(=O)c2cc(NC(=O)c3ccccc3)ccc2O[C@@H](C)CCCCO[C@H]1CN(C)S(=O)(=O)c1cccs1 | inactive: 1.01 |
| O=C(C[C@H]1CC[C@H]2[C@@H](COC[C@H](O)CN2Cc2cc(F)ccc2F)O1)N[C@@H]1CCN(Cc2ccccc2)C1 | inactive: 0.96 |
| Cc1ccc(S(=O)(=O)Nc2ccc3c(c2)C(=O)N([C@@H](C)CO)C[C@H](C)[C@H](CN(C)Cc2ccccc2)OCCCC[C@H](C)O3)cc1 | inactive: 0.972 |
| COCCNC(=O)C[C@H]1CC[C@H]2[C@@H](COC[C@H](O)CN2C(=O)Nc2ccccc2OC)O1 | inactive: 1.02 |
| C[C@@H]1CN([C@H](C)CO)C(=O)Cc2cc(NC(=O)c3ccncc3)ccc2O[C@@H]1CN(C)C(=O)NC1CCCCC1 | inactive: 0.98 |
| C[C@H](CO)N1C[C@H](C)[C@H](CN(C)Cc2ccc(Cl)c(Cl)c2)Oc2ccc(NC(=O)CCCCCC(=O)Nc3ccccc3N)cc2CC1=O | inactive: 0.982 |
| C[C@H]1CN([C@@H](C)CO)C(=O)Cc2cc(NC(=O)Cn3cnnn3)ccc2O[C@@H]1CN(C)CC1CCCCC1 | inactive: 0.932 |

| SMILES | relative growth |
| --- | --- |
| CN(C)CC(=O)N1[C@@H]2Cn3c(ccc(-c4ccncc4)c3=O)[C@H]1[C@@H](C(=O)NC1CCC1)[C@@H]2CO | inactive: 0.993 |
| C[C@@H]1CN([C@H](C)CO)C(=O)c2cc(NC(=O)c3ccncc3)ccc2O[C@H]1CN(C)Cc1ccncc1 | inactive: 0.985 |
| C[C@H](CO)N1C[C@H](C)[C@@H](CN(C)C(=O)Nc2ccc(C(F)(F)F)cc2)OCCCC[C@H](C)Oc2ccc(NC(=O)c3ccccc3)cc2C1=O | inactive: 1.04 |
| C[C@@H]1CN([C@H](C)CO)C(=O)c2cc(C#Cc3ccccc3F)cnc2O[C@@H]1CN(C)C(=O)Cc1ccncc1 | inactive: 0.98 |
| COc1ccc(S(=O)(=O)Nc2cccc3c2O[C@@H](CN(C)Cc2ccncc2)[C@@H](C)CN([C@@H](C)CO)C3=O)cc1 | inactive: 0.972 |
| C[C@H]1CCCCO[C@@H](CN(C)C(=O)c2ccccc2)[C@@H](C)CN([C@@H](C)CO)C(=O)c2cc(NS(=O)(=O)c3ccc(Cl)cc3)ccc2O1 | inactive: 1.02 |
| COc1ccc(CN(C)C[C@@H]2OCCCC[C@@H](C)Oc3ccc(NC(=O)Nc4ccccc4)cc3C(=O)N([C@H](C)CO)C[C@@H]2C)cc1 | inactive: 0.945 |
| COc1ccc(S(=O)(=O)N(C)C[C@@H]2OCCCC[C@@H](C)Oc3ccc(NC(=O)C4CCCCC4)cc3C(=O)N([C@@H](C)CO)C[C@@H]2C)cc1 | inactive: 1.03 |
| Cc1cc(C(C)(C)C)c(O)c(C)c1CC1=NCCN1.Cl | inactive: 1.09 |
| C[C@@H]1CCCCO[C@H](CN(C)C(=O)C2CCCCC2)[C@@H](C)CN([C@@H](C)CO)C(=O)c2cc(NC(=O)Nc3ccc(F)cc3)ccc2O1 | inactive: 1.05 |
| C[C@@H]1CN([C@H](C)CO)C(=O)c2cc(NC(=O)c3ccccc3)ccc2O[C@@H](C)CCCCO[C@@H]1CN(C)S(=O)(=O)c1ccccc1 | inactive: 1.05 |
| O=C1N[C@H](Cc2c[nH]c3ccccc23)COC(=O)[C@@H](Cc2ccc(F)cc2)CC=CC[C@@H]1CC(=O)N(CCO)Cc1ccccc1 | inactive: 1 |
| C[C@@H]1CN([C@H](C)CO)S(=O)(=O)c2ccc(-c3ccncc3)cc2O[C@H]1CN(C)C(=O)c1cccc(F)c1 | inactive: 0.973 |
| C[C@@H]1CN([C@H](C)CO)C(=O)Cc2cc(NC(=O)CCCN(C)C)ccc2O[C@H]1CN(C)S(=O)(=O)c1cccs1 | inactive: 0.998 |
| C[C@H]1CN([C@@H](C)CO)C(=O)c2cc(NC(=O)Nc3cccc4ccccc34)ccc2O[C@@H]1CN(C)C(=O)NC1CCCCC1 | inactive: 1.02 |
| C[C@@H]1CN([C@@H](C)CO)C(=O)c2cc(NC(=O)CCCN(C)C)ccc2O[C@@H](C)CCCCO[C@H]1CN(C)CC1CCCCC1 | inactive: 1 |
| C[C@@H]1CCCCO[C@@H](CN(C)S(=O)(=O)c2ccc(Cl)cc2)[C@@H](C)CN([C@@H](C)CO)C(=O)c2cc(NC(=O)c3ccncc3)ccc2O1 | inactive: 1.01 |
| C[C@@H]1CN([C@@H](C)CO)C(=O)c2ccccc2-c2ccccc2CO[C@@H]1CN(C)S(=O)(=O)c1cn(C)cn1 | inactive: 1.01 |
